Measured values reported in PubChem BioAssay AID330 (DTP/NCI, 2004).
Inconclusive results and toxic doses are left out. Not every entry of the source has a single result; some have several. The list is limited to them. The source may hold further records. The values listed for one entry are repeats (runs, samples, wells, individuals or studies). Marks in square brackets tell the records apart. Letters count within one entry.

System: P388 leukemia ip, CD2F1 mice, survival T/C
Test: NCI In Vivo Anticancer Drug Screen. Data for tumor model P388 Leukemia (intraperitoneal) in CD2F1 (CDF1) mice
Conditions: endpoint: median survival time, higher = longer survival
[1] = dose: 25.0 mg/kg/injection, schedule: Q01DX009 (ip), vehicle: saline

For `COc1cc2c(c(OC)c1OC)-c1ccc(SC)c(=O)cc1[C@@H](NC(=O)CO)CC2`, the T/C (dose: 0.4 mg/kg/injection, schedule: Q01DX009 (ip), vehicle: other) was 99 % of control and 172 % of control.

With `CCN(CC)CCn1[nH]c2c3ccc(=O)cc3sc3c(NCCN)ccc1c32` the T/C (dose: 1.56 mg/kg/injection, schedule: Q01DX005 (ip), vehicle: water) was 114 % of control, 175 % of control, 194 % of control.

For `C[n+]1cc2cc3c(cc2c2ccccc21)OCO3`, the T/C (dose: 25.0 mg/kg/injection, schedule: Q01DX009 (ip), vehicle: water) was 100 % of control and 151 % of control.

For `O=C1N[C@@H]2C(=C[C@H](O)[C@@H](O)[C@H]2O)c2cc3c(c(O)c21)OCO3`, the T/C (dose: 2.5 mg/kg/injection, schedule: Q01DX009 (ip), vehicle: saline with Tween-80) was 93 % of control and 162 % of control.

`O=C(Nc1ccc([N+](=O)[O-])cc1)Nc1nccs1` was tested, and the T/C (dose: 100.0 mg/kg/injection, schedule: Q01DX009 (ip), vehicle: distilled water + Tween-80) was 86 % of control and 151 % of control.

`CNC(=O)OCc1c(COC(=O)NC)c(-c2ccc(F)cc2)n(C)c1C` was tested, and the T/C (dose: 25.0 mg/kg/injection, schedule: Q01DX009 (ip), vehicle: distilled water + Tween-80) was 106 % of control and 150 % of control.

`CCCCN(CCCC)P(=O)(N1CC1)N1CC1` was tested, and the T/C [1] was 91 % of control and 168 % of control.

`CCNCCNc1ccc(NCCNCC)c2c1C(=O)c1ccccc1C2=O` was tested, and the T/C (dose: 25.0 mg/kg/injection, schedule: Q01DX009 (ip), vehicle: other) was 102 % of control and 162 % of control.

With `Nc1ccn([C@@H]2C=C(CO)[C@@H](O)[C@H]2O)c(=O)n1` the T/C (dose: 1.5 mg/kg/injection, schedule: Q01DX009 (ip), vehicle: saline) was 113 % of control and 169 % of control.

With `CCCCCCCCCCCCCCCCCCCCCC(=O)Nc1ccn(C2OC(CO)C(O)C2O)c(=O)n1` (centres undefined) the T/C (dose: 50.0 mg/kg/injection, schedule: Q01DX009 (ip), vehicle: saline with Tween-80) was 90 % of control and 195 % of control.

`COc1cc2c(c(OC)c1OC)-c1cc3c(cc1CC1COC(=O)N1C2)OCO3` (centres undefined) was tested, and the T/C (dose: 120.0 mg/kg/injection, schedule: Q01DX005 (ip), vehicle: Klucel (hydroxypropylcellulose) (HPC)) was 95 % of control, 97 % of control, 164 % of control.

In the case of `CN(Cc1ccccc1)N=NCc1ccccc1`, the T/C (dose: 100.0 mg/kg/injection, schedule: Q01DX005 (ip), vehicle: saline with Tween-80) is reported as 90 % of control and 151 % of control.

`COc1cccc2c1C(=O)c1c(O)c3c(c(O)c1C2=O)C[C@@](O)(/C(C)=N/NC(=O)c1cccc([N+](=O)[O-])c1)C[C@@H]3OC1CC(N)C(O)C(C)O1` (some centres undefined) was tested, and the T/C (dose: 128.0 mg/kg/injection, schedule: Q04DX003 (ip), vehicle: saline) was 115 % of control and 152 % of control and the T/C (dose: 256.0 mg/kg/injection, schedule: Q04DX003 (ip), vehicle: saline) was 108 % of control and 179 % of control.

With `CCNC(=NC)c1ccc(NC(=O)c2ccc(C(=O)Nc3ccc(C(=NC)NCC)cc3)cc2)cc1` the T/C (dose: 6.0 mg/kg/injection, schedule: Q01DX009 (ip), vehicle: saline with Tween-80) was 113 % of control and 181 % of control.

For `COc1ccc(-n2c(C)c(COC(C)=O)c(COC(C)=O)c2C)cc1`, the T/C [1] was 95 % of control and 154 % of control.

In the case of `CCC1(O)CC(OC2CC(N(C)C)C(OC3CC4OC5CC(=O)C(C)OC5OC4C(C)O3)C(C)O2)c2c(cc3c(c2O)C(=O)c2c(O)ccc(O)c2C3=O)C1C(=O)OC` (centres undefined), the T/C (dose: 4.0 mg/kg/injection, schedule: Q04DX003 (ip), vehicle: saline with Tween-80) is reported as 172 % of control [sample A] and 90 % of control [sample B].

`C[n+]1ccc(NC(=O)c2ccc(NC(=O)c3cccc(C(=O)Nc4ccc(C(=O)Nc5cc[n+](C)cc5)cc4)c3)cc2)cc1` was tested, and the T/C (dose: 100.0 mg/kg/injection, schedule: Q04DX003 (ip), vehicle: saline with Tween-80) was 123 % of control, 190 % of control, 200 % of control.

`CCC[CH2][Sn]([CH2]CCC)([S]C#N)[S]C#N` was tested, and the T/C (dose: 3.0 mg/kg/injection, schedule: Q01DX009 (ip), vehicle: saline with Tween-80) was 96 % of control and 154 % of control.
